# Assay results reported in publication PMC4336329 (PLoS ONE, 2015).
# The whole screen tested about 310,000 compounds, of which about 14,000 (4.5%) showed an effect of 50% or more. Effects have a minus sign here. Some of the results follow.
# Target: human ether-à-go-go-related gene (hERG) potassium channel (human, UniProt Q12809)
# Test: primary screen, population patch clamp on CHO cells stably expressing hERG
# 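Further: peak tail current of the secondary pulse compared with the same well before compound.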
# Sequence of human ether-à-go-go-related gene (hERG) potassium channel (Q12809 whole entry, looked up): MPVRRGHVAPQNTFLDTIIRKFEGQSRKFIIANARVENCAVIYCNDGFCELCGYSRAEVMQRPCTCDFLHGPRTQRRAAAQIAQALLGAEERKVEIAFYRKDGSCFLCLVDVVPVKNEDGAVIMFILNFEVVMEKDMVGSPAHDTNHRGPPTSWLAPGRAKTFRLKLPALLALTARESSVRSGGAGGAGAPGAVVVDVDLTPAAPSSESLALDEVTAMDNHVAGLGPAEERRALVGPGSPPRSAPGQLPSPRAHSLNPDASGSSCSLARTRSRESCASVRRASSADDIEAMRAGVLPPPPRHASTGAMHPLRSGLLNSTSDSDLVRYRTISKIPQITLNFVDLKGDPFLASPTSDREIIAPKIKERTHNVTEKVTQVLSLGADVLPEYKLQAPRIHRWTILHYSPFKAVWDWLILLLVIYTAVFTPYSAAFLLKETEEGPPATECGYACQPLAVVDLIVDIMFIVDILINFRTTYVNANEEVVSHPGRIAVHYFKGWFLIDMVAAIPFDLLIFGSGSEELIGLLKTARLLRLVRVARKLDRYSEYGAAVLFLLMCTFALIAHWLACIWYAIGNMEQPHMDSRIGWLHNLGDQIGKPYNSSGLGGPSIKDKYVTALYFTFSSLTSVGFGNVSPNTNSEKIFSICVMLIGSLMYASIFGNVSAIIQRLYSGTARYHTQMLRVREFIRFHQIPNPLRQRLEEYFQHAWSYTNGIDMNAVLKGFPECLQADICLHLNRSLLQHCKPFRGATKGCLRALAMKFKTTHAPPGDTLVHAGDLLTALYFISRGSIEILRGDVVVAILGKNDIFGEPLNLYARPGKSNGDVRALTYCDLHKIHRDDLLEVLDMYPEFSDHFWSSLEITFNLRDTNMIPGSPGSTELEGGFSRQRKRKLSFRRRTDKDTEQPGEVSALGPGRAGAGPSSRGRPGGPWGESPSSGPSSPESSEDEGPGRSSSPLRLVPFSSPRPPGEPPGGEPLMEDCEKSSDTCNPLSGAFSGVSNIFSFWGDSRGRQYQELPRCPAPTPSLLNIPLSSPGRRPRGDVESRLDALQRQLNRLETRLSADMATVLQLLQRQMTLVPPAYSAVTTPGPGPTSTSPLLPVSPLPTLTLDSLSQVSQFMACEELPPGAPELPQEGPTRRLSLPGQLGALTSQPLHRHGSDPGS
row,Compound,"hERG current change (%, negative = inhibition) at 10uM [%]"
1,C=CCOC(=O)CCCCCCCC,15.3
2,O=C(COc1ccc(Br)cc1Cl)Nn1cnnc1,14
3,CCc1nc(N2CCOCC2)c(C#N)c2c1CCCC2,-12.2
4,CCOC(=O)c1ccc(NC(=O)CSc2nnc(C3CC3)n2CC)cc1,1.87
5,COCCCC1CCN(C(=O)CCc2nnc(CCCCc3ccccc3)o2)CC1,-11.9
6,O=c1nc2cccc3c2=c(/c1=C(\O)c1ccccc1)c1ccccc1c3=O,27.7
7,CCOc1ccc(Nc2ncnc(N)n2)cc1,10.3
8,CN(C)S(=O)(=O)N(CC(=O)Nc1ccccc1F)c1ccccc1,-10.6
9,O=C(C1CC(c2ccc(F)cc2)=NO1)N1CCC2(CC1)OCCO2 (stereo not drawn),-0.16
10,Cc1cc2ccccn2c1C(=S)NC(=O)c1ccccc1,6.89
11,CS(=O)(=O)c1ccc(CNC(=O)C2(C(F)(F)F)CC(CCCO)CCCO2)cc1 (stereo not drawn),3.57
12,Cc1ccc(-n2c(SCC(=O)Nc3nccs3)nc3c(c2=O)SCC3)cc1,0.0407
13,COc1ccc(N2CC(C(=O)NCCN3C(=O)S/C(=C\c4cccnc4)C3=O)CC2=O)c(OC)c1 (stereo not drawn),3.67
14,COc1ccc(OC)c(NC(=O)NNC(=O)COc2ccc(F)cc2F)c1,30.3
15,CCOC(=O)c1ccc(NC(=O)COc2cc3oc(=O)c(CC(C)O)c(C)c3cc2Cl)cc1 (stereo not drawn),13.7
16,Cc1c(Cl)cccc1NC(=O)Cn1c(CCC(=O)O)ccc1-c1ccccc1,12.2
17,COC(=O)c1[nH]c2cccc(C)c2c1NC(=O)CN1CCN(C(=O)c2ccco2)CC1,-16.9
18,COc1ccc(-c2cc(-c3nnc(COC(=O)CC4CC5CCC4C5)o3)c3ccccc3n2)cc1OC (stereo not drawn),1.44
19,CC(C)c1ccc(NC2CCCN(C(=O)c3cccnc3)C2)cc1 (stereo not drawn),0.148

row,Compound,"hERG current change (%, negative = inhibition) at 10uM [%]"
1,CCCNc1nc(OC)nc(N2CC3CC(C2)c2cccc(=O)n2C3)n1 (stereo not drawn),-5.8
2,CCCCCOC(=O)c1ccccc1C(=O)O,16.1
3,CCCc1nn(C)c2c(=O)[nH]c(-c3cc(S(=O)(=O)Nc4ccc(NC(C)=O)cc4)ccc3OCC)nc12,-21.2
4,Nc1cc2c(cc1C(=O)c1ccccc1)OCCO2,-14.6
5,CCN(CC(=O)Nc1ccc(NC(C)=O)cc1)C(=O)C(c1ccccc1)c1ccccc1,-10.5
6,O=C(CSc1nnnn1-c1ccccc1)N1CCNC1=O,9.9
7,Cc1cc(=O)c2cc(C(=O)c3ccccc3)ccc2[nH]1,-4.4
8,O=C(COC(=O)Cc1ccc(S(=O)(=O)N2CCOCC2)s1)Nc1ccc([N+](=O)[O-])cc1,-22.3
9,COC(=O)C(c1ccccc1)C(C(=O)OC)c1ccccc1 (stereo not drawn),-2.36
10,CCOC(=O)/C(C#N)=C/c1cc2ccccc2nc1N1CCCCC1,9.91
11,CC1CCC/C(=N/Nc2nc3ccccc3s2)C1 (stereo not drawn),2.63
12,Fc1cccc(F)c1CN1CCN(Cc2c(F)cccc2F)CC1,2.57
13,O=C(COc1ccccc1C(=O)NCC1CCCO1)Nc1ccc(Cl)cc1Cl (stereo not drawn),-14
14,N/C(=N\N=C\c1ccc(O)c(O)c1)c1nonc1N,6.07
15,CCOc1ccc2oc(C(=O)OCC(=O)NCc3ccc(OC)cc3)c(C)c2c1,-1.21
16,O=C(CNC(=S)N(CCCN1CCOCC1)Cc1cccs1)N1CCOCC1,-9.74
17,COc1ccc(C2=NCC(=O)N(CC(=O)NCc3ccco3)c3sc4c(c32)CCCC4)cc1,-35.7
18,COc1ccc2c(c1OC)c(=O)n1c3ccc(OC(C)C(=O)NCCCN4CCOCC4)cc3c3ccnc2c31 (stereo not drawn),10.4
19,CCOC(=O)C1=C(C)C(c2ccc(OC)cc2OC)NC(=O)N1 (stereo not drawn),6.42

row,Compound,"hERG current change (%, negative = inhibition) at 10uM [%]"
1,CCn1c(CC(=O)Nc2ccccc2Cl)nnc1SCC(=O)NC1CCCC1,4.47
2,CCCCn1c(N)c(N(CCOC)C(=O)COC(=O)COc2ccccc2C#N)c(=O)[nH]c1=O,-2.37
3,CC(C)N1C(=O)CCC1C(=O)N1CCC2(CC1)OCCO2 (stereo not drawn),-0.0126
4,Cc1cc(NC(=O)Nc2ccc(Cl)cc2)n(C)n1,5.81
5,O=C(NNS(=O)(=O)c1ccccc1F)c1ccccc1-n1cccc1,9.46
6,CCCC(C)NC(=O)C1CCN(S(=O)(=O)c2ccccc2)CC1 (stereo not drawn),-12
7,Cn1c(=O)c2c(nc(N3CCOCC3)n2Cc2c(F)cccc2Cl)n(C)c1=O,0.434
8,Cc1ccc(C)c(N(Cc2cc3ccc(C)cc3[nH]c2=O)C(=O)c2ccco2)c1,-15.4
9,COc1c(Cl)ccc(Cl)c1C(=O)NC(=O)N1CCOCC1,-15.7
10,Cc1ccc(-n2cc(CNC(C)c3cnn(C)c3)c(-c3ccc(F)cc3)n2)cc1 (stereo not drawn),-40
11,COc1ccc(/C=N/OCc2ccc(Br)cc2)c(OC)c1,13.8
12,CN(C(=O)c1cc(-c2ccc3c(c2)OCO3)on1)c1ccccc1,1.76
13,CCNC(=O)CCSc1nc(C)cc(C)n1,3.55
14,COc1ccccc1CN(C)C(=O)c1cc(C)nc2ccccc12,-65.1
15,COc1cc(/C=C/C(=O)NCC2CCCCC2)cc(OC)c1OC,23.6
16,CCn1nnnc1-c1ccc(OC)c(S(=O)(=O)Nc2ccc(C)c(C)c2)c1,-2.9
17,O=C(Nc1nnc(Cc2ccc(Cl)cc2)s1)c1ccco1,4.13
18,O=C1C(=O)N(c2cccc(Cl)c2)C(c2ccccc2[N+](=O)[O-])/C1=C(\O)c1ccccc1 (stereo not drawn),5.26
19,Cc1ccc(C(=O)NCCc2nnc3ccc(SCC(=O)Nc4ccc(C)cc4C)nn23)cc1,-17.5
